About 540 (0.36%) of roughly 150,000 compounds showed an effect of 50% or more. Some of the results follow.
Each compound was assayed on Plasmodium falciparum (assay: Primary screen in NF54 nanoGlo assay, in single point, at 2uM, 72h; a lower Z score goes with more inhibition). Conditions: timepoint 72 hour.
Assay type: functional, Erythrocyte

SMILES | % Inhibition | Z score
CC(=O)N1CCN(C(=O)c2cn(Cc3ccccc3)nc2OCc2ccccc2)CC1 | -7% | 0.78
Cc1n[nH]c(C)c1CCN(C)C(=O)c1cn(C[C@H]2CCCO2)nn1 | -12% | 1.88
CS(=O)(=O)C1CC2CCC(C1)N2S(=O)(=O)c1ccccc1C(F)(F)F (stereo unspecified) | -8% | 1.02
Cc1ccc(NC(=O)c2cc(S(=O)(=O)N3CCCCCC3)cn2C)cc1F | 1% | -0.15
CCCc1nc(N[C@@H](C)c2nc(-c3ccccn3)no2)c2cnn(C)c2n1 | 6% | -0.87
CCOC(C)c1noc(CNC(=O)NC2CCCC2(C)C)n1 (stereo unspecified) | -6% | 0.89
CCN1CCN(C/C=C/COc2ccc(OC)cc2)CC1 | -3% | 0.46
CCC(=O)N1CC[C@H](NCc2ccc(C)cc2Br)C1 | -10% | 1.35
CCCN1C(=O)CC[C@@H]2CN(C(=O)c3cc(C)c(C)[nH]c3=O)CC[C@@H]21 | -15% | 1.94
CCC(=O)N[C@H](c1cccc(F)c1F)C(F)(F)F | -8% | 0.97
Cc1cc(C(=O)NS(C)(=O)=O)ns1 | 33% | -3.77
O=C(O)[C@H]1CN(S(=O)(=O)c2coc3ccccc23)CCC1(F)F | -15% | 2.81
CCCc1nnc(N2CCC([C@@H](O)Cc3ccccc3)CC2)o1 | 6% | -1.1
O=C(NCCc1cnc(C2CC2)nc1)N1CCC2(C=Cc3ccccc3O2)CC1 | -5% | 0.92
COc1ccccc1CNS(=O)(=O)c1ccc2c(c1)OC[C@@H](C(=O)N1CCOCC1)O2 | -17% | 1.87
Cc1cscc1C(=O)N[C@@H](C)CC(=O)O | -4% | 0.56
COc1cccc([C@@H](O)Cn2nc3c(cc2=O)CCC3)c1 | -12% | 1.89
CCNC(=O)CN(CC)C(=O)N[C@@H](CC)c1cccc(Cl)c1 | -7% | 0.93
Cc1nonc1CC(=O)NCC[C@H]1CN(C2CCCCC2)CCO1 | -6% | 1.23
Cc1nc2cc(N3C[C@@H](C(=O)N4CCN(c5ccccc5)CC4)CC3=O)ccc2o1 | -9% | 1.83
CCn1ncnc1[C@@H](NC(=O)c1ccncc1Cl)C1CC1 | -5% | 0.94
CC(C)c1nccc(C(=O)N(C)CCN2CCCC2)n1 | -13% | 1.37

SMILES | % Inhibition | Z score
Cn1nnc2c(N3CCCC[C@@H]3Cc3ccccc3F)ncnc21 | -9% | 1.39
O=C(Nc1ccccc1N1CCCC1=O)C1=NN(CCO)C(=O)CC1 | 19% | -2.44
O=C1CCCN1c1ccc(OS(=O)(=O)c2ccc3c(c2)CCCC3)cc1 | -6% | 0.93
COc1ccc2c(c1)CN(c1nnc(C3CC3)o1)CC2 | 33% | -1.01
Fc1ccccc1-n1ncc2c1CCC[C@@H]2NCc1cnc(-c2ccc(Cl)cc2)nc1 | 3% | -0.51
Cc1ccc(S(=O)(=O)N[C@H](c2nc(-c3ccc(-c4csc(C)n4)cc3)no2)C(C)C)cc1 | -12% | 1.26
O=C(c1ccccn1)N1CCN(c2cccnc2)C(=O)C1 | -8% | 1.53
O=C(Nc1nnc(CCCc2ccccc2)s1)c1ccccc1 | -11% | 2.13
O=C(NCCc1cccs1)c1ccc(Oc2nccnc2N2CCCCC2)cc1 | -4% | 0.5
Cc1nn(C)c(C)c1C(=O)N(Cc1ccnc(OC(C)C)c1)C1CC1 | -10% | 0.93
Cc1csc(CNC(=O)Cc2csc(C)n2)n1 | -5% | 0.61
CCC(CC)C(=O)Nc1ccc(Cl)cc1Cl | -2% | 0.25
CCOC(=O)N1CCC(N[C@@H](CC)c2nc(C)cs2)CC1 | -7% | 0.89
O=c1[nH]nc2c(N3CC[C@H](NCc4ccccc4F)C3)nccn12 | -1% | 0.14
CC(C)(C)c1ccc(NS(=O)(=O)c2cc(F)c(F)c(F)c2)nn1 | -3% | 0.35
COC(=O)c1ccccc1CCC(=O)N1CCC[C@H]1c1ccncc1 | -6% | 0.55
CC(C)(C)OC(=O)N[C@@H](CC(=O)O)c1cccc(O)c1 | -5% | 0.67
CC1CCC(C)N1Cc1nc(-c2ccsc2)no1 (stereo unspecified) | -8% | 1.59
Cc1nn(C)c(C)c1C[C@H](C)C(=O)N1CCOc2cccc(F)c21 | -1% | 0.19
COc1ccc(Br)c(CC(=O)N(C)c2cccc(C)n2)c1 | -8% | 0.72
Cc1nn(CCN2CCN(C)CC2)cc1CN1CC(n2cccn2)C1 | 2% | -0.3
